Drawing on publication PMC4428384, “Differences in conformational dynamics within the Hsp90 chaperone family reveal mechanistic insights” (Frontiers in Molecular Biosciences, 2014), this text covers subunit exchange rate for 1 protein.

Series [1] concerns the molecule itself. The experiment in a line: FRET or BRET; subunit exchange as in a1, in the presence of ADP. Background: In BRET a luciferase serves as donor, and the signal depends on an acceptor being close.
Series [2] deals with the molecule itself. The experiment in a line: FRET or BRET; subunit exchange as in a1, in the presence of ATP.
Series [3] concerns the molecule itself. The experiment in a line: FRET or BRET; subunit exchange, dimer to monomers: ATTO 488 and ATTO 550 labeled proteins combined (400 nM each), rapidly mixed 1:1 with unlabeled protein (20 μM) in a stopped-flow device, 480 nm excitation, 590 nm cut-off filter; no nucleotide (apo).

B1: EcHtpG-E58C, labeled with ATTO 488 or ATTO 550 (natural protein)
chain: not shown
modifications: ATTO 488 maleimide or ATTO 550 maleimide on the single cysteine (E58C)
notes: Escherichia coli HtpG, the Hsp90 homolog; single cysteine variant E58C; The rows are protomer with protomer: donor- and acceptor-labeled copies in one dimer
As for B1, the figures for the subunit exchange rate in series [1], in series [2] and in series [3] were 0.0036 s⁻¹, 0.0035 s⁻¹ and 0.0028 s⁻¹, respectively.
